{"source": "the BET-seq Pho4 binding data (Le et al. 2018)", "note": "The other results are listed elsewhere or left out. These are noisy estimates, calculated here from bound and input reads."}
{"molecular_target": "T1, Pho4 (S. cerevisiae) (UniProt P07270)", "T1 sequence": "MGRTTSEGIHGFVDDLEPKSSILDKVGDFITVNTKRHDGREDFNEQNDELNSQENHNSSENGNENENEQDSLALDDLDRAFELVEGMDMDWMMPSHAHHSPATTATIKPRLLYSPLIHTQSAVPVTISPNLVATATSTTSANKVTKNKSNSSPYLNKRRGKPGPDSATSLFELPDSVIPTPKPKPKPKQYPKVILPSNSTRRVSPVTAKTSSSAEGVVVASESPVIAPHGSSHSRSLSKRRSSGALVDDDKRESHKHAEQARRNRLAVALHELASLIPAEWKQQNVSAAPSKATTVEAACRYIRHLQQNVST", "assay": "relative binding free energy (BET-seq); higher = weaker binding", "settings": "reference: library average", "units": {"relative binding free energy": "kcal/mol"}}
{"sequence": "GTCGTCACGTGGGTGA", "relative binding free energy": -0.1}
{"sequence": "ATTTTCACGTGGGAAA", "relative binding free energy": 0.12}
{"sequence": "TTTCGCACGTGTTTAT", "relative binding free energy": 0.03}
{"sequence": "TTGGTCACGTGTAGAT", "relative binding free energy": 0.39}
{"sequence": "CGGGCCACGTGTGGAG", "relative binding free energy": -0.08}
{"sequence": "TTCGGCACGTGGCGTG", "relative binding free energy": -0.22}
{"sequence": "TATTGCACGTGATAAA", "relative binding free energy": 0.07}
{"sequence": "AAGAGCACGTGTAGGA", "relative binding free energy": -0.2}
{"sequence": "AGATACACGTGAGGCT", "relative binding free energy": 0.3}
{"sequence": "AGATGCACGTGTGTCG", "relative binding free energy": -0.06}
{"sequence": "TTGATCACGTGTAGAA", "relative binding free energy": 0.22}
{"sequence": "TAACTCACGTGAGTGT", "relative binding free energy": 0.4}
{"sequence": "AGGAGCACGTGTGGCC", "relative binding free energy": 0.02}
{"sequence": "ATATGCACGTGGGGTA", "relative binding free energy": -0.37}
{"sequence": "TGAGTCACGTGGGAAT", "relative binding free energy": 0.12}
{"sequence": "CGGGTCACGTGTGGTT", "relative binding free energy": 0.17}
{"sequence": "AGGTACACGTGTATAG", "relative binding free energy": 0.05}
{"sequence": "GTCTGCACGTGTGCGT", "relative binding free energy": -0.01}
{"sequence": "GGTCGCACGTGCGGTG", "relative binding free energy": -0.07}
{"sequence": "GAGGGCACGTGGGCTG", "relative binding free energy": -0.27}
{"sequence": "TTACTCACGTGGTGGA", "relative binding free energy": 0.14}
{"sequence": "TGCCGCACGTGTGTGT", "relative binding free energy": -0.1}
{"sequence": "GGATTCACGTGGTCGT", "relative binding free energy": 0.18}
{"sequence": "TTAAACACGTGTAGGG", "relative binding free energy": 0.02}
{"sequence": "AGCTTCACGTGGCGGG", "relative binding free energy": 0.26}
{"sequence": "ATGGCCACGTGTGCTT", "relative binding free energy": 0.06}
{"sequence": "GTAGTCACGTGTTAGG", "relative binding free energy": 0.19}
{"sequence": "ATCAGCACGTGGGTTA", "relative binding free energy": -0.18}
{"sequence": "TGTGGCACGTGAAGCA", "relative binding free energy": 0.15}
{"sequence": "CGGGGCACGTGGGAAA", "relative binding free energy": -0.1}
{"sequence": "TACGGCACGTGGACGT", "relative binding free energy": 0.02}
{"sequence": "CAGTTCACGTGTGGTG", "relative binding free energy": 0.28}
{"sequence": "AGTCTCACGTGCAGGG", "relative binding free energy": 0.28}
{"sequence": "TTTATCACGTGATTTA", "relative binding free energy": 0.31}
{"sequence": "ATTGACACGTGCAAGG", "relative binding free energy": -0.03}
{"sequence": "AATTGCACGTGGCATG", "relative binding free energy": -0.11}
{"sequence": "GGCGTCACGTGCCGGG", "relative binding free energy": -0.01}
{"sequence": "TAAGACACGTGTGCTG", "relative binding free energy": 0.06}
{"sequence": "GGCGTCACGTGCGGGC", "relative binding free energy": 0.17}
{"sequence": "AATGACACGTGGTGCT", "relative binding free energy": -0.15}
{"sequence": "GGTAACACGTGATAGT", "relative binding free energy": 0.26}
{"sequence": "TGGGGCACGTGATTTT", "relative binding free energy": 0.01}
{"sequence": "AGGCTCACGTGTAGGG", "relative binding free energy": 0.06}
{"sequence": "TATAGCACGTGTTTTT", "relative binding free energy": -0.19}
{"sequence": "TGGGTCACGTGGTGTC", "relative binding free energy": 0.08}
{"sequence": "GTTGTCACGTGAGGTC", "relative binding free energy": 0.43}
{"sequence": "GTAATCACGTGCCGGG", "relative binding free energy": 0.17}
{"sequence": "CATTACACGTGTGTGA", "relative binding free energy": 0.15}
{"sequence": "TTATGCACGTGCAATT", "relative binding free energy": 0.02}
{"sequence": "ACGGTCACGTGGACTG", "relative binding free energy": 0.28}
{"sequence": "AGTTACACGTGGTTGC", "relative binding free energy": 0.08}
{"sequence": "TCATGCACGTGTTAGT", "relative binding free energy": -0.18}
{"sequence": "TGCAGCACGTGTAATG", "relative binding free energy": 0.01}
{"sequence": "GCTGTCACGTGGGATA", "relative binding free energy": 0.13}
{"sequence": "AAATCCACGTGAGTGT", "relative binding free energy": 0.39}
{"sequence": "TTTTGCACGTGGTACT", "relative binding free energy": -0.08}
{"sequence": "CTCGTCACGTGGTGAG", "relative binding free energy": 0.03}
{"sequence": "AAATACACGTGAAGGG", "relative binding free energy": 0.26}
{"sequence": "TCTTTCACGTGGAGAT", "relative binding free energy": 0.17}
{"sequence": "TAAGGCACGTGGAGTC", "relative binding free energy": -0.08}
{"sequence": "GGGCGCACGTGCTGGA", "relative binding free energy": -0.1}
{"sequence": "CAGTGCACGTGTGAAT", "relative binding free energy": 0.13}
{"sequence": "AATGTCACGTGGTGGG", "relative binding free energy": 0.02}
{"sequence": "TTTTGCACGTGTGGTG", "relative binding free energy": 0.08}
{"sequence": "ATTGGCACGTGGATCG", "relative binding free energy": -0.15}
{"sequence": "ATGAACACGTGATTAG", "relative binding free energy": 0.18}
{"sequence": "TTGTACACGTGTTGAG", "relative binding free energy": 0.13}
{"sequence": "ATTATCACGTGGGATG", "relative binding free energy": 0.03}
{"sequence": "TGGATCACGTGTTGGG", "relative binding free energy": 0.18}
{"sequence": "TGTTGCACGTGGGCGC", "relative binding free energy": -0.06}
{"sequence": "GTTTACACGTGGGCGA", "relative binding free energy": 0.05}
{"sequence": "CTTTGCACGTGGTATA", "relative binding free energy": -0.08}
{"sequence": "AATATCACGTGGTTGG", "relative binding free energy": 0.03}
{"sequence": "ATATACACGTGTGGGA", "relative binding free energy": 0.07}
{"sequence": "ATTTACACGTGGGAGC", "relative binding free energy": 0.02}
{"sequence": "GGGTGCACGTGCTGTC", "relative binding free energy": -0.06}
{"sequence": "TGAATCACGTGTACGT", "relative binding free energy": 0.14}
{"sequence": "GATTTCACGTGGTTAA", "relative binding free energy": 0.22}
{"sequence": "TTTCGCACGTGGAGGG", "relative binding free energy": -0.11}
{"sequence": "TAGGGCACGTGCCGGT", "relative binding free energy": -0.21}
{"sequence": "AGATTCACGTGCTAGG", "relative binding free energy": 0.16}
{"sequence": "ATTTACACGTGCGGTA", "relative binding free energy": 0}
{"sequence": "GGTGTCACGTGAGACG", "relative binding free energy": 0.1}
{"sequence": "ATTGTCACGTGCGAGA", "relative binding free energy": 0.09}
{"sequence": "CCTGGCACGTGGGGAG", "relative binding free energy": -0.18}
{"sequence": "ATCTTCACGTGGGGAG", "relative binding free energy": 0.07}
{"sequence": "CGAAGCACGTGGCGGG", "relative binding free energy": -0.17}
{"sequence": "GCGTCCACGTGGTTGT", "relative binding free energy": 0.1}
{"sequence": "AGAGTCACGTGGTAAA", "relative binding free energy": 0.25}
{"sequence": "TGGCACACGTGTGCTG", "relative binding free energy": 0.15}
{"sequence": "ATGGACACGTGGGTCT", "relative binding free energy": -0.02}
{"sequence": "ATTGACACGTGTTGTA", "relative binding free energy": -0.07}
{"sequence": "TGGTTCACGTGGTTGT", "relative binding free energy": 0.29}
{"sequence": "AAGGCCACGTGTATGG", "relative binding free energy": 0}
{"sequence": "GCTTGCACGTGTGCTG", "relative binding free energy": 0.01}
{"sequence": "GGATTCACGTGGAGGT", "relative binding free energy": 0.38}
{"sequence": "CGTAACACGTGAGAGG", "relative binding free energy": 0.29}
{"sequence": "GGTGCCACGTGAGTGC", "relative binding free energy": 0.21}
{"sequence": "GGTACCACGTGATGGG", "relative binding free energy": 0.18}
{"sequence": "CAGTGCACGTGTTTTG", "relative binding free energy": -0.12}
{"sequence": "TTGTTCACGTGACCTT", "relative binding free energy": 0.44}
{"sequence": "GAGGTCACGTGCTTGT", "relative binding free energy": 0.1}
{"sequence": "CGGAGCACGTGGTGGC", "relative binding free energy": -0.18}
{"sequence": "TCCAGCACGTGGGGTT", "relative binding free energy": -0.14}
{"sequence": "TTTGGCACGTGACAAG", "relative binding free energy": -0.07}
{"sequence": "ACGTACACGTGTTTTT", "relative binding free energy": 0.08}
{"sequence": "TAGCTCACGTGTGGGT", "relative binding free energy": 0.28}
{"sequence": "ATATACACGTGTGCGG", "relative binding free energy": 0.1}
{"sequence": "TACGTCACGTGTAGGC", "relative binding free energy": 0.15}
{"sequence": "AGGGACACGTGATAGG", "relative binding free energy": 0.07}
{"sequence": "TGGTACACGTGTGCAG", "relative binding free energy": 0.2}
{"sequence": "AGTGACACGTGGTAGC", "relative binding free energy": 0.03}
{"sequence": "GTTTACACGTGTGTCA", "relative binding free energy": 0.17}
{"sequence": "TAGATCACGTGTGCGT", "relative binding free energy": -0.01}
{"sequence": "CTGGTCACGTGTAATG", "relative binding free energy": 0.14}
